Test [1] deals with STING (Bimolecular Fluorescence Complementation fusion) (UniProt Q86WV6). The experiment in a line: split reporter; Bimolecular Fluorescence Complementation of STAT2 and STING in cells (SI Appendix, Fig. S3A).
For test [2], the target named is T1, calnexin (Co-IP, SI Appendix Fig. S3D) (UniProt P27824).
T1 sequence: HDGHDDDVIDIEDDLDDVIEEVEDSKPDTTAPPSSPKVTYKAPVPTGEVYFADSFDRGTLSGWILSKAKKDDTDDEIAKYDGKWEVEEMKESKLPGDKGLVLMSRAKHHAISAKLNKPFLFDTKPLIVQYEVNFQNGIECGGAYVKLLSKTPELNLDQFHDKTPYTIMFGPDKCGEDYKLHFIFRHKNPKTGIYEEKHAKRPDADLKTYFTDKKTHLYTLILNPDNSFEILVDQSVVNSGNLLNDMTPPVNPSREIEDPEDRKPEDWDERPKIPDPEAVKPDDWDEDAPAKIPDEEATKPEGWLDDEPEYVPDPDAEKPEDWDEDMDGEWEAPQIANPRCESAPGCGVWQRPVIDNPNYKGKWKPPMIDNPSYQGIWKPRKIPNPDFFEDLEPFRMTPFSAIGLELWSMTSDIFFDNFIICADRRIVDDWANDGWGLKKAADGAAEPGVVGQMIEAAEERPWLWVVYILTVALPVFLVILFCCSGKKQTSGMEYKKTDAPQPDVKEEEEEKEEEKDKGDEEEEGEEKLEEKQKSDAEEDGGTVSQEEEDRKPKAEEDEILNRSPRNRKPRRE
As to the kind of experiment: co-IP; Co-IP with calnexin upon treatment with a STING ligand (SI Appendix, Fig. S3D); cells not told in the main text.

The chains behind the UniProt entries cited, without tags or fusion partners. Where a name states a change or a piece, a line headed by the entry shows the natural chain unless it says otherwise. Residues count along the entry.
UniProt Q86WV6: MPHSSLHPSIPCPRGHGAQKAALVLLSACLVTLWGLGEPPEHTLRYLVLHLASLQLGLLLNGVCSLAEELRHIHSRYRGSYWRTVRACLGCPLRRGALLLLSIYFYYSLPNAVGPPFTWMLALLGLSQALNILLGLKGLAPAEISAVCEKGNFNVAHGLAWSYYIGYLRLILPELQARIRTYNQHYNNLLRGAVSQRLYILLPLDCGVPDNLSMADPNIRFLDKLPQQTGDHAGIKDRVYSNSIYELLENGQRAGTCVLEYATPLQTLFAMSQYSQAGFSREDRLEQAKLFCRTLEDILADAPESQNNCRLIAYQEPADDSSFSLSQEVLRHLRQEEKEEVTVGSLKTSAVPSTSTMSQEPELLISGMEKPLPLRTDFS
mGST-fusion protein of STING residues 265 to 379: residues 265-379 of Q86WV6
UniProt P52630: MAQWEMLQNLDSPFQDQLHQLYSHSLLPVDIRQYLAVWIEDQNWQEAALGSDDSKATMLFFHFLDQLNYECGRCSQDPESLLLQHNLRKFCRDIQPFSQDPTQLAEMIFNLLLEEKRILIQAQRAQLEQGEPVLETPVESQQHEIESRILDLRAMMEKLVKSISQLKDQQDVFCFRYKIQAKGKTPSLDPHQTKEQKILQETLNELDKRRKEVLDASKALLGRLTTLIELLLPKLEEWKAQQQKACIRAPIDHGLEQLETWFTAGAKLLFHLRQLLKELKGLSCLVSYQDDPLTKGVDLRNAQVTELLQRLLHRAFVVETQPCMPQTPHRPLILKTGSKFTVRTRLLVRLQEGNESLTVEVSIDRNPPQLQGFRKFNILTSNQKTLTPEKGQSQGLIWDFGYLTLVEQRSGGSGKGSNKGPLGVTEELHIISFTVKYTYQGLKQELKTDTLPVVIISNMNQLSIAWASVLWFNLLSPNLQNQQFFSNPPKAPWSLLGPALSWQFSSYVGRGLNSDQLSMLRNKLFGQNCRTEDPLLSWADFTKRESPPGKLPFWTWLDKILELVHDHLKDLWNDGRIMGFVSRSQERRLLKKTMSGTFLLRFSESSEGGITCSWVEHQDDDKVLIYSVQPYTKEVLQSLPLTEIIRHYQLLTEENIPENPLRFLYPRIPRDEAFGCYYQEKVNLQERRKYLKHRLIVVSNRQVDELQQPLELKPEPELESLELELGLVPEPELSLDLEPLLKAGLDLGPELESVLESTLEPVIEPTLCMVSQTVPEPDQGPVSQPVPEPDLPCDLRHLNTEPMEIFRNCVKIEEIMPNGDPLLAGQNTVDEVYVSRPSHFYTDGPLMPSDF

The target of test [3] is STING (stimulator of interferon genes) (human (endogenous in HT1080)) (UniProt Q86WV6). The experiment in a line: co-IP; endogenous proteins, HT1080 cells treated with 8 µg/mL cGAMP for 3 h.
Test [4] addresses mGST-fusion protein of STING residues 265 to 379 (UniProt Q86WV6). As to the kind of experiment: pull-down; set of mGST-fusion proteins with different STING truncations and deletions, tested with STAT2 (SI Appendix, Fig. S2A-C); called a direct interaction; conditions not told in the main text.
The target of test [5] is STING (Calu-1 cells) (human (endogenous in Calu-1)) (UniProt Q86WV6). The experiment in a line: co-IP; STAT2-deficient Calu-1 cells restored with WT, T404A, or T404E STAT2, stimulated with 2′3′cGAMP (8 μg/mL) for 3 h.

The values that follow come from paper PMC10120020.

No constants are given. Whether binding was seen depends on the method and setting. Binding seen in cells or lysates may run through a third protein. Some entries that bind do so weakly or less than the wild type.

Regarding “STAT2 (Bimolecular Fluorescence Complementation fusion) (from UniProt P52630 1-851)”, the binding entry in test [1] was “binds”.
On to “STAT2 (Co-IP with calnexin, SI Appendix Fig. S3D) (from UniProt P52630 1-851)”, for which the binding result in test [2] is “binds”.
On to STAT2 (from UniProt P52630 1-851), for which the binding result in test [3] is “binds”.
As to “STAT2 (partner of the mGST-STING fusion proteins) (from UniProt P52630 1-851)”, the binding entry in test [4] is recorded as “binds”.
With “T404A STAT2 (restored in STAT2-deficient Calu-1 cells) (from UniProt P52630 1-851)”, the binding entry in test [5] is given as “no binding”.
On the same count and under the same terms, then “T404E STAT2 (restored in STAT2-deficient Calu-1 cells) (from UniProt P52630 1-851)”, with “binds”.
With “WT STAT2 (restored in STAT2-deficient Calu-1 cells) (from UniProt P52630 1-851)”, in test [5], the binding entry is “binds”.
